Reference: patent US12630643B2, “CD40 binding protein, bispecific conjugate thereof and method of treating cancer” (priority 2020, dated 2026)

Columns and labels:
[1] = test system: human monocyte-derived dendritic cells; experiment: Internalisation of antibody into dendritic cells; conditions: 125 nM antibody
[2] = test system: human monocyte-derived DC (MoDC); experiment: MoDC activation, IL-12p40 ELISA; format: cell-based
Human CD40-Fc = Human CD40-Fc (Homo sapiens, UniProt P25942); experiment: SPR kinetic measurements (single cycle kinetics) on captured IgG2, hCD40-Fc
Human CD40-avi = Human CD40-avi (Homo sapiens, UniProt P25942); experiment: SPR kinetic measurements (single cycle kinetics) on captured IgG2, hCD40-avi; conditions: 1:1 Langmuir binding model
Cynomolgus CD40-Fc = experiment: SPR kinetic measurements (single cycle kinetics) on captured IgG2, cCD40-Fc; conditions: Cynomolgus CD40-Fc (dimer, avidity effects may contribute)
human moDCs = experiment: Dendritic cell microscopy (clustering); format: cell-based; conditions: 200 nM and 1.6 nM
[3] = test system: human monocyte-derived DC (MoDC); experiment: MoDC activation, flow cytometry of surface activation markers (t-SNE)
Canine CD40-Fc = biological target: T1, Canine CD40-Fc (Canis lupus familiaris, UniProt Q7YRL5); experiment: SPR single cycle kinetics of Example 5, canine CD40-Fc; format: binding; conditions: in words
T1 construct: purchased Sino Biological 70105-D02H
T1 sequence (Q7YRL5 21-193 limits assumed): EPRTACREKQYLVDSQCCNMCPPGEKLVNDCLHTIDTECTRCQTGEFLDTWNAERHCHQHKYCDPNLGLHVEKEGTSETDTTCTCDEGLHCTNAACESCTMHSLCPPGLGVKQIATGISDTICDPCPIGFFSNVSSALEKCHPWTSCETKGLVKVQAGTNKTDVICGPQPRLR

[4] = Human CD40-Fc (dimer, avidity effects may contribute)

Sequence of Human CD40-Fc (P25942 21-193): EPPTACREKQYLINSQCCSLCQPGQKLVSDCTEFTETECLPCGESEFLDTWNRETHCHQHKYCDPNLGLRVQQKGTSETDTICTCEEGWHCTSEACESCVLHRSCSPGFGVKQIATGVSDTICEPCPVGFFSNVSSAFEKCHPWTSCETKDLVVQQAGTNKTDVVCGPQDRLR
Sequence of Human CD40-avi (P25942 21-193): as above

B1: Y-SM083-A9: agonistic human anti-CD40 IgG2 monoclonal antibody; light chain SEQ ID NO: 9, heavy chain SEQ ID NO: 10 (antibody)
heavy: EVQLLESGGGLVQPGGSLRLSCAASGFTFSSYAMSWVRQAPGKGLEWVSGISGYSGSTYYADSVKGRFTISRDNSKNTLYLQMNSLRAEDTAVYYCARYYSYYGYYYFDYWGQGTLVTVSSASTKGPSVFPLAPCSRSTSESTAALGCLVKDYFPEPVTVSWNSGALTSGVHTFPAVLQSSGLYSLSSVVTVPSSNFGTQTYTCNVDHKPSNTKVDKTVERKCCVECPPCPAPPVAGPSVFLFPPKPKDTLMISRTPEVTCVVVDVSHEDPEVQFNWYVDGVEVHNAKTKPREEQFNSTFRVVSVLTVVHQDWLNGKEYKCKVSNKGLPAPIEKTISKTKGQPREPQVYTLPPSREEMTKNQVSLTCLVKGFYPSDIAVEWESNGQPENNYKTTPPMLDSDGSFFLYSKLTVDKSRWQQGNVFSCSVMHEALHNHYTQKSLSLSPGK
light: DIQMTQSPSSLSASVGDRVTITCRASQSISSYLNWYQQKPGKAPKLLIYAASSLQSGVPSRFSGSGSGTDFTLTISSLQPEDFATYYCQQGYPYPFTFGQGTKLEIKRTVAAPSVFIFPPSDEQLKSGTASVVCLLNNFYPREAKVQWKVDNALQSGNSQESVTEQDSKDSTYSLSSTLTLSKADYEKHKVYACEVTHQGLSSPVTKSFNRGEC
modifications: Heavy chain; Light chain
internalisation ([1]; after 60 min at 37° C.): 50% | antibodies remained extracellular ([1]; after 4 h incubation): Approximately 30% | agonistic activity by IL-12 ELISA ([2]; Example 7, 1:2 serial dilutions from 500 nM, 48 h): highest agonistic activity of the new antibodies | IL-12 production ([2]; Example 12, 1:2 serial dilutions from 200 nM, 48 h): induced substantial cytokine release | IL-12 production (agonistic potential) ([2]; Example 13, 100-12.5 nM, 48 hours): dose-dependent agonistic potential | % agonistic activity of A9 at 25 nM ([2]; IL-12 production after 48 h, relative to A9 (SP9)): 100 (reference) % | ka (Human CD40-Fc; [4]): 310000 M⁻¹ s⁻¹ | kd (Human CD40-Fc; [4]): 0.0016 s⁻¹ | Kd (Human CD40-Fc; read-out: affinity constant for human CD40, as stated in the description): ~5 nM | ka (Human CD40-avi): 170000 M⁻¹ s⁻¹ | kd (Human CD40-avi): 0.0061 s⁻¹ | ka (Cynomolgus CD40-Fc): 500000 M⁻¹ s⁻¹ | kd (Cynomolgus CD40-Fc): 0.0022 s⁻¹ | dendritic cell clustering (activation) (human moDCs): induced significant clustering | agonistic profile, t-SNE cluster of surface expression of CD14, CD1a, CD40, HLA-DR, CD86 and CD83 ([3]; 125 nM antibody, 48 hours of stimulation): potent agonistic potential | expression of dendritic cell surface activation markers HLA-DR, CD83 and CD86 ([3]; Example 12, 200 nM): induced expression of the dendritic cell surface activation markers | binding to canine CD40 (Canine CD40-Fc): only Ab-5 (CP-870,893) binds canine CD40
